The GPR68 mutational scans of Howard et al. (2025)

B1: GPR68, Q15743 (parent)
chain: MGNITADNSSMSCTIDHTIHQTLAPVVYVTVLVVGFPANCLSLYFGYLQIKARNELGVYLCNLTVADLFYICSLPFWLQYVLQHDNWSHGDLSCQVCGILLYENIYISVGFLCCISVDRYLAVAHPFRFHQFRTLKAAVGVSVVIWAKELLTSIYFLMHEEVIEDENQHRVCFEHYPIQAWQRAINYYRFLVGFLFPICLLLASYQGILRAVRRSHGTQKSRKDQIQRLVLSTVVIFLACFLPYHVLLLVRSVWEASCDFAKGVFNAYHFSLLLTSFNCVADPVLYCFVSETTHRDLARLRGACLAFLTCSRTGRAREAYPLGAPEASGKSGAQGEEPELLTKLHPAFQTPNSPGSGGFPTGRLA

Experiments:
[1] = variants of: B1; assay: cAMP reporter score (Enrich2 score, wild type = 0); higher = more signal; HEK293T, FACS bins
[2] = variants of: B1; assay: surface expression score (Enrich2 score, wild type = 0); higher = more signal; HEK293T, FACS bins

Row | Variant | cAMP reporter score ([1]; pH 5.5) | cAMP reporter score ([1]; pH 6, modulator: ogerin) | cAMP reporter score ([1]; pH 6.5, modulator: ogerin) | surface expression score [2] | cAMP reporter score ([1]; pH 6)
1 | A180del | -2.02 | -0.41 | -0.441 | -0.375 | –
2 | Q182_A184del | -2.08 | -1.81 | -1.32 | -1.64 | -1.59
3 | R189F | -0.798 | -0.234 | – | -0.436 | –
4 | R189Q | -0.278 | -1 | -1.2 | -0.998 | 0.332
5 | R189Y | -0.667 | -1.48 | -1.12 | -1.22 | -1.2
6 | R189I | -0.751 | -2 | -1.3 | – | –
7 | R189G | -3.07 | -1.3 | – | -3.47 | -0.866
8 | R189P | -1.5 | -2.1 | -1.44 | -2.67 | -1.23
9 | R189E | -0.894 | – | -0.516 | – | -0.828
10 | R189V | -1.01 | -1.35 | -0.741 | -2.02 | -0.686
11 | R189L | -0.129 | -1.11 | -1.5 | – | -1.24
12 | R189N | 1.76 | -1.07 | 0.388 | -0.398 | 2.18
13 | R189M | 0.707 | -0.883 | -0.278 | -2.37 | -1.27
14 | R189C | -0.983 | -0.951 | -0.934 | -0.692 | -1.16
15 | R189T | -0.222 | -1.9 | -1.38 | -1.43 | -0.762
16 | R189K | -0.248 | -0.414 | -0.592 | -0.878 | 0.259
17 | R189W | 0.355 | -1.07 | -0.583 | -0.418 | –
18 | R189A | -1.41 | -1.73 | -1.63 | -1.32 | -1.73
19 | R189D | -1.06 | -1.67 | -1.56 | -3.36 | -1.87
20 | R189S | -0.126 | -0.964 | -1.98 | -0.322 | -0.526
21 | R189H | 0.851 | -0.655 | -2.6 | – | –
22 | F190_L191insG | -1.52 | – | – | -2.68 | -1.76
23 | R183_A184insGS | 0.222 | -0.473 | -0.498 | -0.341 | 0.971

Row | Variant | cAMP reporter score ([1]; pH 5.5) | cAMP reporter score ([1]; pH 6, modulator: ogerin) | cAMP reporter score ([1]; pH 6.5, modulator: ogerin) | surface expression score [2] | cAMP reporter score ([1]; pH 6)
24 | R183del | -0.835 | -1.74 | -0.57 | – | –
25 | L191_V192insGSG | -2.07 | -2.4 | -1.27 | -1.2 | -1.33
26 | N186_Y188del | -1.91 | – | -0.898 | -1.95 | –
27 | L191del | 0.007 | 0.765 | – | – | –
28 | R183_A184insGSG | -0.713 | -1.13 | -1.21 | -1.66 | -0.542
29 | A180S | 1.15 | 1.39 | 1.48 | 1.96 | 0.317
30 | A180T | 0.818 | 1.44 | 1.83 | 1.15 | 1.06
31 | A180M | 0.6 | 1.42 | 0.934 | 1.86 | 1.15
32 | A180Q | 0.76 | 0.997 | 2.08 | 0.543 | 1.12
33 | A180K | 0.805 | 0.615 | 0.719 | 0.771 | -0.493
34 | A180W | 0.661 | 0.362 | -0.254 | -1.59 | -1.03
35 | A180L | -1.32 | -1.34 | -0.776 | -1.61 | -1.23
36 | A180N | 0.226 | 1.02 | 2.01 | 0.888 | 1.8
37 | A180R | -0.702 | 0.91 | – | – | -0.561
38 | A180P | 0.626 | 0.706 | 0.605 | 0.679 | –
39 | A180Y | 0.947 | 0.571 | -0.252 | -0.057 | 1.07
40 | Y187_Y188del | -0.406 | -2.33 | -0.933 | – | –
41 | N186del | -1.67 | – | -2.34 | -0.935 | -2.32
42 | A180_W181insG | -1.15 | – | -2.15 | -0.399 | -0.466
43 | W181_Q182insG | 0.219 | -1.27 | -1.06 | -2 | -0.183
44 | N186I | -0.068 | -0.259 | 0.431 | -0.168 | -1.01
45 | N186D | 0.414 | – | -0.439 | -0.795 | -0.605
46 | N186R | -1.11 | -0.772 | 0.084 | -2.28 | -0.287

Row | Variant | cAMP reporter score ([1]; pH 5.5) | cAMP reporter score ([1]; pH 6, modulator: ogerin) | cAMP reporter score ([1]; pH 6.5, modulator: ogerin) | surface expression score [2] | cAMP reporter score ([1]; pH 6)
47 | N186L | 1.02 | 1.33 | 1.32 | -0.411 | -0.156
48 | N186W | -2.52 | -0.729 | – | -0.552 | 0.633
49 | N186A | 1.04 | 1.03 | 0.861 | 1.2 | 1.35
50 | N186K | -1.37 | -1.13 | -1.06 | -2.28 | -1.09
51 | N186P | -1.3 | – | -0.623 | -2.76 | –
52 | N186H | -1.15 | -0.532 | -1.56 | -0.959 | -1.6
53 | N186S | 0.788 | 1.24 | 2.93 | -0.198 | 2.42
54 | N186Q | -0.412 | – | – | – | –
55 | N186C | 0.749 | 0.873 | -0.133 | -1.12 | -0.377
56 | N186Y | -0.428 | 0.647 | -0.556 | 0.085 | 0.071
57 | N186E | -1.64 | – | -2.22 | -2.43 | -0.817
58 | N186V | 0.127 | -0.169 | 0.086 | 0.673 | -0.765
59 | N186F | 1.15 | 1.12 | 1.36 | 2.59 | -0.035
60 | N186T | -0.404 | -0.31 | -0.798 | -0.575 | –
61 | N186M | 0.387 | 0.203 | 1.53 | 0.918 | -1.02
62 | R189_F190insGS | -1.43 | -1.84 | -1.8 | -1.96 | -3
63 | W181_Q182del | 1.58 | 0.528 | -0.322 | 0.179 | 0.513
64 | N186_Y187del | -0.501 | -0.861 | -0.656 | -2.53 | –
65 | I185_N186insGS | -1.34 | -0.766 | -1.01 | -3.05 | -1.66
66 | Y187_Y188insGSG | -1.66 | -1.7 | -1.6 | -2.29 | -0.971
67 | A180_Q182del | -0.79 | -1.08 | -1.08 | -0.859 | -1.08

Scores whose standard error is large were omitted. The source holds two more conditions with little spread; they are left out. Read del as a deletion of the residues named and ins as an insertion between two positions. For some assays here: The concentration of ogerin is not given here.
